About 2,200 (0.71%) of roughly 310,000 compounds showed an effect of 50% or more. The effect is printed as a negative number. The list shows a part of the results.

human ether-à-go-go-related gene (hERG) potassium channel, sequence (Q12809 whole entry, looked up): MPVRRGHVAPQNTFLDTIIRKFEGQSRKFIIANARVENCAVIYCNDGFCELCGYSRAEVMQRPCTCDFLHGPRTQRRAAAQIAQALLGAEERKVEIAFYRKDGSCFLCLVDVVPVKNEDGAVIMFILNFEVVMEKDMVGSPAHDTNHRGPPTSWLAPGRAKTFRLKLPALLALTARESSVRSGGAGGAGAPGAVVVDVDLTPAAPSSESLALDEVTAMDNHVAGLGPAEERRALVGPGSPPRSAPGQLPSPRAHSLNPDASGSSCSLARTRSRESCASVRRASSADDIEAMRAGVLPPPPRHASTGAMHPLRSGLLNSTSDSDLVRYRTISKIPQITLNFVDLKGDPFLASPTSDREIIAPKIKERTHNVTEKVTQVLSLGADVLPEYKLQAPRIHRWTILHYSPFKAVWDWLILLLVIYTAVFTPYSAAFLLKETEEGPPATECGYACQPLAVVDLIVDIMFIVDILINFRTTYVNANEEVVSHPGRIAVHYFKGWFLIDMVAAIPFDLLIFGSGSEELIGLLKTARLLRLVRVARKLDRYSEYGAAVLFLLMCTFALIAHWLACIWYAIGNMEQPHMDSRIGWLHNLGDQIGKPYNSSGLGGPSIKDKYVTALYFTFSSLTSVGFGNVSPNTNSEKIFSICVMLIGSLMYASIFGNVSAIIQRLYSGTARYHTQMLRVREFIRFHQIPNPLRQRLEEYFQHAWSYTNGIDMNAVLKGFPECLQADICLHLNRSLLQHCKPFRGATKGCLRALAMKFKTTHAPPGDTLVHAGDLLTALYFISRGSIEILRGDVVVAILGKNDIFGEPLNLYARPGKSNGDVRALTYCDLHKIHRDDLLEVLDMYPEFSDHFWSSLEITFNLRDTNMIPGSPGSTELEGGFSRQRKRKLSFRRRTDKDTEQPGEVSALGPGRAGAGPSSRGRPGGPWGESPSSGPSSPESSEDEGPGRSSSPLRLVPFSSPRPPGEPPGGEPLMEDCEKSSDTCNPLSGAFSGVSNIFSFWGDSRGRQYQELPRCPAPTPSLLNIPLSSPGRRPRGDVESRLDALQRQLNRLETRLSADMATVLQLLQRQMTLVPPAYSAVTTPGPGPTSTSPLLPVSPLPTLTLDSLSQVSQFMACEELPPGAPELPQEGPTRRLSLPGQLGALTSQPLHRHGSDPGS

The assay concerns the target human ether-à-go-go-related gene (hERG) potassium channel (human, UniProt Q12809). As to the kind of experiment: primary screen, population patch clamp on CHO cells stably expressing hERG.
With `Cl.O=S(=O)(NCC(c1ccco1)N1CCCCC1)c1cccc(C(F)(F)F)c1` (centres unmarked), the “hERG current change (%, negative = inhibition) at 1uM” value is given as 7.94%.

As for `CCOC(=O)C(C(=O)NCc1ccc(C)cc1)c1ncc(C(F)(F)F)cc1Cl` (centres unmarked), the “hERG current change (%, negative = inhibition) at 1uM” value was 8.93%.

Regarding `COc1cccc(-c2cccc(NC(=O)C3CCN(Cc4nccs4)CC3)c2)c1`, the “hERG current change (%, negative = inhibition) at 1uM” value was determined as 3.89%.

Turning to `Fc1ccccc1N1CC(c2ccccc2)C(c2cccs2)=N1` (centres unmarked), the “hERG current change (%, negative = inhibition) at 1uM” value worked out at 7.54%.

Turning to `Cc1cc(C)c(S(=O)(=O)NCc2cn3c(C)csc3n2)c(C)c1`, the “hERG current change (%, negative = inhibition) at 1uM” value is listed as 18.5%.

As for `CCN1CCCC1CNS(=O)(=O)c1c(C)cc(C)cc1C.Cl` (centres unmarked), the “hERG current change (%, negative = inhibition) at 1uM” value turned out to be 2.79%.

On to `COc1ccc(NS(=O)(=O)c2ccc(Oc3ncccn3)cc2)cc1`, for which the “hERG current change (%, negative = inhibition) at 1uM” value is recorded as 11%.

Consider `COc1ccccc1NS(=O)(=O)c1cccc(C(=O)N(C)Cc2cccs2)c1`, for which the “hERG current change (%, negative = inhibition) at 1uM” value amounted to 1.89%.

As for `O=C(c1cc(-c2ccncc2)nc2ccc(Br)cc12)N1CCN(c2ccccn2)CC1`, the “hERG current change (%, negative = inhibition) at 1uM” value is listed as -9.18%.

Regarding `COc1ccccc1N1CCN(C(=O)C(=O)c2cn(CC(=O)N3CCCC3)c3ccccc23)CC1`, the “hERG current change (%, negative = inhibition) at 1uM” value came to 9.68%.

`CC(=O)NS(=O)(=O)c1ccc(NC(=S)NC(=O)c2ccco2)cc1`: the “hERG current change (%, negative = inhibition) at 1uM” value turned out to be 5.06%.

Consider `O=C1N/C(=C/c2cccn2-c2ccccc2)C(=O)N1Cc1ccccc1F`, for which the “hERG current change (%, negative = inhibition) at 1uM” value came to 8.52%.

Take `CCn1cc(C(=O)OCC(=O)Nc2cccc(C)c2)c(=O)c2ccc(C)nc21`: the “hERG current change (%, negative = inhibition) at 1uM” value was found to be 12.7%.

Regarding `COc1cccc(/C=N/NC(=O)C(C)Sc2ccccc2)c1` (centres unmarked), the “hERG current change (%, negative = inhibition) at 1uM” value was found to be 11.1%.

Turning to `CN(C(=O)CSc1nnc(NC2CCCCC2)s1)C1CCS(=O)(=O)C1` (centres unmarked), the “hERG current change (%, negative = inhibition) at 1uM” value stood at 7.89%.

Consider `CCn1c(-c2ccc(N)cc2)nc2ccccc21`, for which the “hERG current change (%, negative = inhibition) at 1uM” value is on record as 17.3%.

As for `CCN(CC)S(=O)(=O)c1ccc(NC(=O)C(C)N(c2ccc(OC)cc2)S(C)(=O)=O)cc1` (centres unmarked), the “hERG current change (%, negative = inhibition) at 1uM” value is on record as 3.34%.

With `Cc1cc(Cl)ccc1NC(=S)NCCC(c1ccccc1)c1ccccc1`, the “hERG current change (%, negative = inhibition) at 1uM” value was found to be 12.8%.

In the case of `Cc1ccc(/C=N/n2c(C)cc(C)c(C#N)c2=O)o1`, the “hERG current change (%, negative = inhibition) at 1uM” value was determined as 10.2%.

For `Cc1ccc(CNC(=O)CCCn2c(=O)c3ccccc3n(CC(=O)NC3CCCC3)c2=O)cc1`, the “hERG current change (%, negative = inhibition) at 1uM” value is reported as 3.03%.

Regarding `O=C(Nc1ccccc1C(=O)N1CCOCC1)C1CCC(=O)N1C1CCCC1` (centres unmarked), the “hERG current change (%, negative = inhibition) at 1uM” value was 19.1%.

For `COc1ccc(-c2cccc(NC(=O)c3ccco3)c2)nn1`, the “hERG current change (%, negative = inhibition) at 1uM” value is reported as 15.7%.

On to `CC(=O)N1c2ccccc2NC2=C(C(=O)CCC2)C1c1cccnc1` (centres unmarked), for which the “hERG current change (%, negative = inhibition) at 1uM” value is given as 5.36%.

For the molecule `O=C(Nc1ccc(-c2csc(Nc3ccccc3)n2)cc1)c1cccc(C(F)(F)F)c1`, the “hERG current change (%, negative = inhibition) at 1uM” value is recorded as 13.8%.

Consider `O=S(=O)(c1ccccc1)N1CCN(c2nnc(-c3ccccc3)c3ccccc23)CC1`, for which the “hERG current change (%, negative = inhibition) at 1uM” value was 2.37%.

Consider `COCCNC(=O)c1ccccc1NC(=O)Cc1ccccc1`, for which the “hERG current change (%, negative = inhibition) at 1uM” value worked out at 4.94%.

Turning to `Cc1ccc(S(=O)(=O)N2CCN(C)CC2)cc1C(=O)NC1CCCCC1`, the “hERG current change (%, negative = inhibition) at 1uM” value is 0.22%.

For `Cc1cc(C)cc(NC(=O)CSc2nc3[nH]c(=O)cc(O)c3s2)c1`, the “hERG current change (%, negative = inhibition) at 1uM” value came to 13%.

As to `COC(=O)C1CCN(C(=O)COC(=O)CNC(=O)c2ccc(Cl)cc2Cl)CC1`, the “hERG current change (%, negative = inhibition) at 1uM” value was -0.261%.

For the molecule `CSc1ncc(C(=O)Nc2cccc(Cl)c2C)c(C)n1`, the “hERG current change (%, negative = inhibition) at 1uM” value stood at 9.23%.

For the molecule `O=C(NNC(=O)C1CCN(S(=O)(=O)c2ccc(Cl)cc2)CC1)c1ccc(Cl)cc1`, the “hERG current change (%, negative = inhibition) at 1uM” value is reported as 4.45%.

Turning to `Cc1nc(-c2cccnc2)sc1C(=O)Nc1ccc(Cl)cc1`, the “hERG current change (%, negative = inhibition) at 1uM” value was 8.8%.

`Cc1cccc(CC(=O)NCC(=O)NCc2cc(=O)n(C)c(=O)n2C)c1`: the “hERG current change (%, negative = inhibition) at 1uM” value was found to be 15.9%.

As for `CC/C(=C\C(=O)c1ccncc1)Nc1ccc(O)cc1`, the “hERG current change (%, negative = inhibition) at 1uM” value was -0.704%.

Take `CCC(=O)OCc1cc2cccc(C)c2[nH]c1=O`: the “hERG current change (%, negative = inhibition) at 1uM” value was 6.42%.

With `Cc1ccc(F)c(C2C3C=CCC(c4cccc(-c5ccc(N(C)C)cc5)c4)C3C(=O)N2Cc2ccccc2)c1` (centres unmarked), the “hERG current change (%, negative = inhibition) at 1uM” value is reported as 11.5%.

Turning to `O=C(CCc1ccccc1)Nc1ccccc1[N+](=O)[O-]`, the “hERG current change (%, negative = inhibition) at 1uM” value is 6.5%.

Consider `CC1Cc2cc(S(=O)(=O)CCC(=O)NCc3ccco3)ccc2N1C(=O)C1CC1` (centres unmarked), for which the “hERG current change (%, negative = inhibition) at 1uM” value turned out to be 15.3%.

Take `CC(NS(=O)(=O)c1ccc(Cl)c(Cl)c1)C(=O)OCC(=O)Nc1ccc2c(c1)OCO2` (centres unmarked): the “hERG current change (%, negative = inhibition) at 1uM” value is reported as 17.2%.

For `COC(=O)c1ccc(COc2ccc(C(=O)c3ccccc3)cc2)o1`, the “hERG current change (%, negative = inhibition) at 1uM” value is listed as 8.37%.

As to `On1c(-c2ccc(Cl)cc2Cl)nc2ncccc21`, the “hERG current change (%, negative = inhibition) at 1uM” value is reported as 10.9%.

Regarding `COc1ccc(NC(=O)CN(C)C(=O)c2cc3c(s2)CCC3)cc1`, the “hERG current change (%, negative = inhibition) at 1uM” value is listed as 2.68%.

As to `COc1ccccc1N1CCN(C(=O)CCc2ccccc2)CC1`, the “hERG current change (%, negative = inhibition) at 1uM” value worked out at 14.6%.

As for `COC(=O)c1ccc(Nc2nc(N3CCOCC3)nc(N3CCOCC3)n2)cc1.Cl`, the “hERG current change (%, negative = inhibition) at 1uM” value amounted to 6.18%.

The record behind these values is article PMC4336329 (PLoS ONE, 2015).
